# Test results as given in PubChem BioAssay AID1745853 (National Center for Advancing Translational Sciences (NCATS), 2022).
# The list shows a part of the results. These are further read-outs of the screen, such as a control signal, another cell line or another target. No call is given for them.
# Columns and labels:
# Experiment in all cases: Primary Screen for Target Class Profiling of Small Molecule Inhibitors of Methyltransferases
# [1] = target: Glycine N-methyltransferase (Homo sapiens) (UniProt Q14749); conditions: purified enzyme, MTase-Glo SAH luminescence; measured here: GNMT inhibition; at 40 µM; stronger effect = lower value
# How it was run: (§1)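 Each enzyme was reacted with SAM and its substrate, with compounds tested once at 40 uM; SAH formed was read by MTase-Glo luminescence.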
# [2] = target: Guanidinoacetate N-methyltransferase (Homo sapiens) (UniProt Q14353); conditions: purified enzyme, MTase-Glo SAH luminescence; measured here: GAMT inhibition; at 40 µM; stronger effect = lower value
# How it was run: as §1
# [3] = target: Histamine N-methyltransferase (Homo sapiens) (UniProt P50135); conditions: purified enzyme, MTase-Glo SAH luminescence; measured here: HNMT inhibition; at 40 µM; stronger effect = lower value
# How it was run: as §1
# [4] = target: Nicotinamide N-methyltransferase (Homo sapiens) (UniProt P40261); conditions: purified enzyme, MTase-Glo SAH luminescence; measured here: NNMT inhibition; at 40 µM; stronger effect = lower value
# How it was run: as §1
# [5] = target: Phenylethanolamine N-methyltransferase (Homo sapiens) (UniProt P11086); conditions: purified enzyme, MTase-Glo SAH luminescence; measured here: PNMT inhibition; at 40 µM; stronger effect = lower value
# How it was run: as §1
# On the % scale 0 is the no-effect control and ±100 the full control effect.
Structure (SMILES),"activity change, negative = inhibition [1]","activity change, negative = inhibition [2]","activity change, negative = inhibition [3]","activity change, negative = inhibition [4]","activity change, negative = inhibition [5]"
CCC(C)NC(=O)c1ccc2c(=O)n(CCC(C)C)c3nn(Cc4ccccc4)c(=O)n3c2c1 (stereo not drawn),-5.38%,0%,2.54%,-3.02%,0.908%
CCC1(C(=O)NC2CCCCC2)CCCCC(=O)N1 (stereo not drawn),-1.14%,-2.19%,-0.045%,-0.807%,-4.33%
O=C(c1cccc(OC2CN(C3CCCC3)C2)c1)N1CCCC1,-0.969%,1.58%,-13.5%,1.43%,-3.6%
Cc1ccc(Nc2ccn3c(=O)n(CC(=O)Nc4ccc(F)cc4F)nc3n2)cc1,7.45%,0.6%,4.61%,-0.676%,2.79%
COc1ccc([C@H]2Cc3cccc(O)c3C(=O)O2)cc1,-4.45%,5.56%,4.6%,-8.87%,-0.974%
C/C=C/CN1C[C@@H](NC(=O)c2cccc(N(C)C)c2)C[C@H]1C(=O)NCC,-3.53%,-6.46%,-1.4%,-4.61%,-2.19%
O=C([C@@H]1C[C@H](Oc2ccccc2)CN1C(=O)C1CC1)N1CCCC1,-3.83%,-3.87%,-0.748%,-6.04%,-12%
CN1CCCC2(CCN(S(=O)(=O)c3ccc4[nH]c(=O)[nH]c4c3)C2)C1=O (stereo not drawn),-5.79%,-8.71%,-1.43%,-11.9%,-27.7%
CCCn1c(=O)c2ccccc2n2c(=O)n(CC(=O)c3ccc(OCC)cc3)nc12,3.06%,0%,8.06%,5.69%,5.82%
COC1=C(C(=O)OCc2ccccc2)N(c2c(C)cccc2C)[S+](=O)([O-])c2ccccc21,-2.45%,-3.13%,-1.82%,-5.43%,-8.14%
CCCCCCCCCCCCC/C=C/[C@@H](O)[C@H](CO)N(C)C,,14.9%,,-2.18%,6.9%
C=C(C)C(=O)OC1C(OC(C)=O)/C(C=O)=C\CC/C(CO)=C/C2OC(=O)C(=C)C21 (stereo not drawn),0%,-1.1%,-1.43%,-9.8%,1.47%
CCOC(=O)c1cc2n(n1)CC(C)(C(=O)NCc1ccc(C)cc1)N(CCc1ccc(OCC)cc1)C2=O (stereo not drawn),2.6%,0%,5.04%,-2.01%,0.333%
CC(=O)N[C@H](CC(C)C)c1nc(-c2ccc(C)nn2)no1,-5.38%,-6%,-3.91%,-14.1%,-7.26%
CN(C)CC1CCOC1(c1ccccc1)c1ccccc1 (stereo not drawn),5.57%,8.86%,8.51%,-3.73%,6.01%
CC(C)CCN1CC2(CCCN(S(=O)(=O)N3CCOCC3)C2)CCC1=O (stereo not drawn),-0.146%,5.9%,2.04%,-1.31%,4.05%
CCCNC(=O)N1CCC(Cc2ccc(CCNC(C)=O)cc2)CC1,-4.24%,-10.5%,-3.09%,-5.05%,-4.95%
Cc1ccc(C(=O)O)c2c1N[C@@H](c1ccc(Cl)cc1)[C@H]1CC=C[C@@H]21,-31.4%,2.75%,4.55%,-1.56%,-0.876%
